In all, about 410,000 compounds went through this assay and about 6,400 (1.6%) were called active. This list was built around the results that the source calls inconclusive (neither active nor inactive); the mix of calls is not that of the screen. Calls follow the shape of the dose curve; as a rule, active = well fitted inhibition curve with a large enough effect; inconclusive = small, poorly fitted or top-dose-only effect; inactive = no such curve, though single readings can be large or run the other way. No potency is given beside an inconclusive call; the fits are too rough.
biological target: Glucagon-like peptide 1 receptor (Homo sapiens) (UniProt P43220); test: qHTS of GLP-1 Receptor Inverse Agonists (Inhibition Mode); conditions: HEK293 GLP-1R CRE-luciferase, luminescence, 24 h, GLP-1R form is constitutively active; activity change, negative = inhibition: at 38.3 µM (top of the series) unless noted; also: nearly all actives have a fitted effect of over 55% in size
Outline: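 Stable HEK293 clone (constitutively active GLP-1R + cAMP-response luciferase); 200 cells/uL plated, 12 h pre-culture, compound 24 hr, 37 deg C/5% CO2; detection reagent 12 min RT; luminescence.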
% is scaled to controls: 0 for no effect and ±100 for the full control effect; potency is read from the fitted curve at half-maximal effect; tags tell the direction and shape of the fitted curve.

Sequence of UniProt P43220 (P43220 whole entry, looked up): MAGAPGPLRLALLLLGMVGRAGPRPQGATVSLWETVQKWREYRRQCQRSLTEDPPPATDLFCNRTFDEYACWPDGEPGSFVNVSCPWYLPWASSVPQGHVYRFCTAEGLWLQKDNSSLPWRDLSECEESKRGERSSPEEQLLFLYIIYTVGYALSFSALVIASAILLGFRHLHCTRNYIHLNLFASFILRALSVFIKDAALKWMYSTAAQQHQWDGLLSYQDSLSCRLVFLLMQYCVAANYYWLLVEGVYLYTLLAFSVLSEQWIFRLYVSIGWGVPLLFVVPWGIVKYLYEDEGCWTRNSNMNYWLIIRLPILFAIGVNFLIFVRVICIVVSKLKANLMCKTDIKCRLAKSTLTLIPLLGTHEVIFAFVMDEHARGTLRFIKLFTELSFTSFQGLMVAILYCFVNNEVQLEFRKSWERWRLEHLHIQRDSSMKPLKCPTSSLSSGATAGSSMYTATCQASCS

Q: How did the Potency turn out when `CCCCc1c(-c2ccccc2F)ncn1CCc1ccccc1OC` was run?
A: inconclusive [inhibitor, single point]

Q: For `C[C@@H]1CN([C@H](C)CO)S(=O)(=O)c2ccc(C#C[C@@H](C)O)cc2O[C@@H]1CN(C)Cc1ccc(-c2ccccc2)cc1`, which Potency is on record?
A: inconclusive [inhibitor, single point]

Q: With `O=C(/C=C/c1ccc(O)cc1)c1ccc(O)cc1O` as the molecule, how does the Potency read?
A: inconclusive [inhibitor, single point]

Q: For `COc1ccc([C@H]2[C@H]3C=CC[C@@H](C)[C@@H]3C(=O)N2Cc2ccccc2)cc1Cl`, which Potency is on record?
A: inconclusive [inhibitor, partial curve, poor fit]

Q: With `O=C(Nc1ccccc1)C(Cc1ccccc1)c1ccccc1` (configuration not stated) as the molecule, how does the Potency read?
A: inconclusive [inhibitor, full curve, poor fit]

Q: With `CCOC(=O)C1CCCN(/C=C2\SC(=S)N(CC)C2=O)C1` (configuration not stated) as the molecule, how does the Potency read?
A: inconclusive [inhibitor, single point]

Q: With `CCC(CC)c1nc(C#N)c(NCc2ccccc2)o1` as the molecule, how does the Potency read?
A: inconclusive [inhibitor, partial curve]

Q: How did the Potency turn out when `Cc1ccnc2nc(C(=O)Nc3nc4ccccc4s3)nn12` was run?
A: inconclusive [inhibitor, full curve, poor fit]

Q: With `O=C(COc1cccc(Cl)c1)Nc1ccc2c(c1)CCC2` as the molecule, how does the Potency read?
A: inconclusive [inhibitor, partial curve, poor fit]

Q: Which Potency does the source give for `COCCCNC(=O)c1oc2c(c1C)-c1nn(Cc3cccc(Cl)c3)cc1CC2` here?
A: inconclusive [inhibitor, partial curve, poor fit]

Q: `Cc1ccc(C)c(OCC(O)CN2CCC(CN3C(=O)c4cccc5cccc(c45)C3=O)CC2)c1` (configuration not stated) was tested. Which Potency did it give?
A: inconclusive [inhibitor, full curve]

Q: For `COCc1cccc(-c2csc(C(O)c3cccc(OC)c3)n2)c1` (configuration not stated), which Potency is on record?
A: inconclusive [inhibitor, single point]

Q: With `COc1ccccc1N1CCN(C(=O)c2nn(-c3ccc(C)cc3)c(=O)n(C)c2=O)CC1` as the molecule, how does the “activity change, negative = inhibition” value read?
A: inactive: -9.7%

Q: `COC(=O)C1=C(CS(=O)(=O)c2cc(Cl)ccc2OC)NC(=O)NC1c1ccccc1` (configuration not stated) was tested. Which “activity change, negative = inhibition” value did it give?
A: inactive: -18.5%

Q: Which Potency does the source give for `COc1ccc(CCNC(=O)c2csc3c2CCCC3)cc1` here?
A: inconclusive [inhibitor, partial curve]

Q: Which Potency does the source give for `CC1CCN(C(=O)C(Cc2ccccc2)n2cccc2)CC1` (configuration not stated) here?
A: inconclusive [inhibitor, single point]

Q: Which Potency does the source give for `Cc1nonc1OCCNCCNc1ccc([N+](=O)[O-])cc1Cl` here?
A: inconclusive [inhibitor, partial curve, poor fit]

Reference: PubChem BioAssay AID624417 (National Center for Advancing Translational Sciences (NCATS), 2012)
